# Measurements: PubChem BioAssay AID2546 (National Center for Advancing Translational Sciences (NCATS), 2010)
# The whole screen tested about 310,000 compounds, of which about 11,000 (3.5%) were called active. Inconclusive results, whose numbers are uncertain, are shown with a selection of clear calls. Calls come from the whole dose curve; as a rule, active = well fitted inhibition curve with a large enough effect; inconclusive = small, poorly fitted or top-dose-only effect, or effect the other way; inactive = flat fitted curve, though single readings scatter. Potencies of inconclusive entries are left out as doubtful fits.
# Assay: VP16 counterscreen qHTS for inhibitors of ROR gamma transcriptional activity;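 note: Gal4-VP16 expression switched on by copper sulfate through the metallothionein promoter; nearly all actives have a fitted effect of over 50% in size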
# Conditions: Drosophila S2 Gal4-VP16 UAS-luciferase, luminescence, 20 h; activity, negative = inhibition: at 53.6 µM (top of the series)
# % is set by controls: 0 for no effect and ±100 for the full control effect; potency is the fitted concentration of half-maximal effect; tags give direction and shape of the fitted curve.
Compound,Potency,"activity, negative = inhibition"
COC(=O)C1=C(C)NC(C)=C(C(=O)OCCSc2ccccc2)C1C (centres undefined),"inconclusive [inhibitor, single point]",
COc1cc2c3nnc(-c4ccc(F)cc4)c-3cn(Cc3cccc(C)c3)c2cc1OC,active: 10 µM,
CCn1c2ccccc2c2cnc(N=CN(C)C)c(C#N)c21,,inactive: -0.257%
COc1cccc(-c2cc(C(F)(F)F)n3ncc(C(=O)NCC4CCCO4)c3n2)c1 (centres undefined),"inconclusive [inhibitor, single point]",
O=C(Nc1cc(Cl)cc(Cl)c1)c1ccc(Cn2c(=O)[nH]c3ccsc3c2=O)cc1,"inconclusive [inhibitor, single point]",
C/C(=N\NC(=O)C1CCCN(S(=O)(=O)c2ccccc2)C1)c1cccnc1 (centres undefined),"inconclusive [activator, single point]",
CC(C1CC2CCC1C2)n1c(-c2cccs2)n[nH]c1=S (centres undefined),"inconclusive [inhibitor, full curve]",
CCNc1nc(NCC)n2c(SC(C(=O)Nc3cc(C)ccc3OC)c3ccccc3)nnc2n1 (centres undefined),,inactive: -2.11%
O=C(O)c1cccc(Nc2nc(C(F)(F)F)nc3ccccc23)c1,"inconclusive [inhibitor, single point]",
Cc1cc(N2CCOCC2)nc2ccc(NC(=O)CCC(=O)N3CCN(c4cccc(C(F)(F)F)c4)CC3)cc12,"inconclusive [inhibitor, partial curve]",
S=C(NCc1cccnc1)Nc1ccc(Oc2ccccc2)cc1,"inconclusive [inhibitor, single point]",
CC(=NCc1ccco1)c1c(O)n(C2CCCCC2)c(=O)[nH]c1=O,,inactive: -3.81%
COc1ccc(C(=O)Nc2ccccc2-c2nnn(CC(=O)NCc3ccco3)n2)cc1,"inconclusive [inhibitor, single point]",
O=C(N/N=C/c1c[nH]c2ccccc12)c1cc(-c2ccc(-c3ccccc3)cc2)n[nH]1,"inconclusive [inhibitor, single point]",
CCn1c(-c2ccc(Cl)cc2)n[nH]c1=S,active: 12.6 µM,
O=C(NC(=S)Nc1ccccc1C(F)(F)F)c1ccccc1F,"inconclusive [inhibitor, partial curve, poor fit]",
Cc1cc(O)c(/C=N/OCc2ccc(Cl)cc2Cl)c(=O)o1,"inconclusive [inhibitor, single point]",
Cc1cc(C#N)c(C)c(SCc2[nH]nc3c2C(c2ccccc2)C(C#N)=C(N)O3)n1 (centres undefined),"inconclusive [inhibitor, single point]",
CCCOc1ccc(Cc2c(Cl)nc(SC)nc2N(C)C)cc1,active: 5.01 µM,
COC(=O)c1[nH]c2ccccc2c1NC(=O)CN1CCCc2ccccc21,"inconclusive [inhibitor, single point]",
Cc1ccc(-c2cc(C(=O)N/N=C/C=C/c3ccccc3)n[nH]2)o1,active: 20 µM,
CCCc1nc(Nc2nc3ccccc3o2)nc(C)c1C(=O)OCC,"inconclusive [inhibitor, single point]",
Cc1nn(-c2ccccc2)c(N)c1C(c1ccc(C(C)C)cc1)c1c(C)nn(-c2ccccc2)c1N,,inactive: -4.96%
S=c1[nH]cc(-c2ccccc2)n1-c1cccc(Cl)c1,active: 4.47 µM,
C=CCN(CC=C)S(=O)(=O)c1ccc(C(=O)Nc2nnc(COC)o2)cc1,active: 7.08 µM,

Compound,Potency,"activity, negative = inhibition"
CC1CCCC(NCC(O)COC(c2ccc(F)cc2)c2ccc(F)cc2)C1C (centres undefined),,inactive: -6.24%
Nc1c(C(=O)c2ccccc2)sc2snc(SCC(=O)c3ccccc3)c12,active: 12.6 µM,
COc1ccc(-c2nc(NC(=O)C3CCN(c4nc5ccccc5o4)CC3)sc2C)cc1,"inconclusive [inhibitor, single point]",
Cc1cccc(C#Cc2ccccc2)n1,"inconclusive [inhibitor, single point]",
CCN(CC)CC(=O)Nc1sc(C)cc1C(=O)c1ccccc1,"inconclusive [inhibitor, single point]",
CCOC(=O)Nc1ccc2c(c1)N(C(=O)CCN(CC)CC)c1ccccc1S2=O (centres undefined),active: 12.6 µM,
COc1ccc(NC(=O)Cn2nnc3ccccc32)c([N+](=O)[O-])c1,,inactive: -0.527%
C/C(=C\c1cccc(Br)c1)C(=O)c1c(C)cc(C)[nH]c1=O,"inconclusive [inhibitor, single point]",
CSCCC(NS(=O)(=O)c1ccc(C)cc1)C(=O)NC1CCCCC1 (centres undefined),,inactive: -0.648%
Cc1ccc(Cn2ncc(Cl)c(Cl)c2=O)cc1,"inconclusive [inhibitor, single point]",
OC(c1ccccc1)(c1ccccc1)C1CCN(C(=S)NCCc2ccccc2)CC1,"inconclusive [inhibitor, single point]",
CC1Cc2ccccc2N1C(=O)CN1CCC(C(N)=O)CC1 (centres undefined),,inactive: -16.4%
CCCS(=O)(=O)N1CCC(C(=O)NCc2ccc3c(c2)OCO3)CC1,,inactive: -2.09%
CCc1ccccc1NC(=O)N1C2CCCC1CC(NC(C)=O)C2 (centres undefined),,inactive: 1.86%
Brc1cccc(-c2nnc3sc(CNCc4ccco4)cn23)c1,,inactive: 13%
Cc1ccc(N2C(=O)c3cccc4cccc(c34)C2=O)cc1,,inactive: -12.8%
Cc1cccc(NC(=S)NC(=O)CCc2ccccc2)c1,"inconclusive [inhibitor, single point]",
Cn1cnnc1Sc1ccc(/C=C/C(=O)c2ccc(O)cc2)cc1[N+](=O)[O-],"inconclusive [inhibitor, single point]",
N#Cc1ccc(-c2cccnc2)nc1SCC(=O)c1ccccc1,"inconclusive [inhibitor, single point]",
O=[N+]([O-])c1cnc2nc(-c3ccncc3)nn2c1O,,inactive: -12.9%
Cc1ccc(NC(=O)c2c(C(F)(F)F)nn(C)c2SCc2cccc(C(F)(F)F)c2)cc1C,"inconclusive [inhibitor, single point]",
O=C(Nc1ccc(Cl)cc1)Nc1cnccn1,,inactive: -5.54%
CCN(CC)C1CC(=O)N(c2cccc(Cl)c2)C1=O (centres undefined),"inconclusive [inhibitor, single point]",
CCCCn1c(SCC(=O)NCc2ccccc2)nc2ccc(N3CCOCC3)cc2c1=O,"inconclusive [inhibitor, single point]",
CC(C)Cn1c(CNC(=O)c2ccccc2)nc2ccccc21,"inconclusive [inhibitor, partial curve]",

Compound,Potency,"activity, negative = inhibition"
Cc1[nH][nH]c(=O)c1/C=N/N1CCOCC1,,inactive: 6.85%
Nc1c(-c2cccc(Cl)c2)cnn1-c1cccc(C(F)(F)F)c1,"inconclusive [inhibitor, single point]",
C=CCn1c(-c2ccccc2)c[nH]c1=S,"inconclusive [inhibitor, full curve, poor fit]",
COc1ccc(OC2C(=O)N(Cc3ccc(F)cc3)C2c2cc(OC)c(OC)c(OC)c2)cc1 (centres undefined),,inactive: -9.8%
CCOC(=O)C1CCCN(C/C(O)=C(\C#N)c2nc(-c3ccc(Cl)cc3)cs2)C1 (centres undefined),"inconclusive [inhibitor, single point]",
O=C(Oc1ccc(-c2cnc3ccccc3n2)cc1)c1ccco1,"inconclusive [inhibitor, single point]",
CC(C)CC(=O)NC(=S)Nc1ccccc1N1CCCC1,active: 11.2 µM,
Clc1ccc2[nH]cc(-c3nnnn3-c3ccccc3)c2c1,"inconclusive [inhibitor, single point]",
C=C(C)c1cccc(C(C)(C)NC(=O)Nc2cc(C)ccn2)c1,"inconclusive [inhibitor, partial curve]",
COc1ccc(OC)c(S(=O)(=O)Nc2ccc(Oc3ccccc3)cc2)c1,active: 6.31 µM,
Clc1ccccc1N=C1NN=C(c2cccs2)CS1,"inconclusive [inhibitor, single point]",
CCCCCCCCOC(=O)C[N+](C)(C)C/C=C(/C)Cl,"inconclusive [inhibitor, single point]",
COc1cccc(NC(=S)NN2C(C)CCCC2C)c1 (centres undefined),active: 5.62 µM,
CC1CCCN(C2=C(NS(=O)(=O)c3ccc(Br)cc3)C(=O)c3ccccc3C2=O)C1 (centres undefined),"inconclusive [inhibitor, single point]",
C#CCN1C(=O)C(O)(CC(=O)c2cccc(OC)c2)c2ccccc21 (centres undefined),,inactive: 2.25%
CCC(C)n1c(=S)[nH]c2c(sc3ccc([N+](=O)[O-])cc32)c1=O (centres undefined),active: 1.26 µM,
Cc1ccc(-c2nnc(SCC(=O)NC3CC3)o2)cc1,"inconclusive [inhibitor, partial curve, poor fit]",
COc1ccc(Nc2nc(CC(C)=O)ns2)cc1,"inconclusive [activator, single point]",
Cc1cc(C)c(NC(=S)N(Cc2cccnc2)Cc2ccco2)c(C)c1,"inconclusive [inhibitor, single point]",
Clc1ccc2[nH]c3c(c2c1)CNCC3,,inactive: -5.61%
Cc1ccc(C(=O)NC(=S)Nc2ccc(N3CCOCC3)cc2)c(C)c1,active: 25.1 µM,
COc1ccc(-c2csc3nc(-c4ccccc4F)oc(=O)c23)cc1OC,"inconclusive [inhibitor, single point]",
COc1ccccc1CNS(=O)(=O)c1c(C(=O)N2CCCCCC2)c(C)n(C)c1C,,inactive: -10.3%
CCCCOC1(c2ccccc2)NC(=S)NN=C1c1ccccc1 (centres undefined),"inconclusive [inhibitor, single point]",
